# In publication PMC9911399, “Two distinct binding modes provide the RNA-binding protein RbFox with extraordinary sequence specificity”:
# Where a chain is given by its changes, count along the chain named. The list shows a part of the results.
# T1: RBFOX1 RRM RbFoxmut (Fox-RRM*) (Homo sapiens, UniProt Q9NWB1 109-208, R118D;E147R;N151S;E152T)
# T1 sequence: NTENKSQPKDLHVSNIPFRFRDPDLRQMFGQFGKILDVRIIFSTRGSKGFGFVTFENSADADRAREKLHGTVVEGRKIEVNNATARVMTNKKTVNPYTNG
# B1: UCGGCGG (DNA:RNA)
# RNA: GGGAGACCGGAAUUCAGAUUGUCCUCGGCGGUUAAAUCCCGUCGUAGCCACCA
# DNA 1: CAATCTGAATTCCGGTCTCCC
# DNA 2: TGGTGGCTACGACGGGATT
# B2: CGGGAAG (DNA:RNA)
# RNA: B1 RNA with U25C, C26G, C29A, G30A
# DNA 1: CAATCTGAATTCCGGTCTCCC
# DNA 2: TGGTGGCTACGACGGGATT
# B3: AGAACGG (DNA:RNA)
# RNA: B1 RNA with U25A, C26G, G27A, G28A
# DNA 1: CAATCTGAATTCCGGTCTCCC
# DNA 2: TGGTGGCTACGACGGGATT
# B4: UCAACAU (DNA:RNA)
# RNA: B1 RNA with G27A, G28A, G30A, G31U
# DNA 1: CAATCTGAATTCCGGTCTCCC
# DNA 2: TGGTGGCTACGACGGGATT
# B5: UAAAUAA (DNA:RNA)
# RNA: B1 RNA with C26A, G27A, G28A, C29U, G30A, G31A
# DNA 1: CAATCTGAATTCCGGTCTCCC
# DNA 2: TGGTGGCTACGACGGGATT
# B6: CUUACCC (DNA:RNA)
# RNA: B1 RNA with U25C, C26U, G27U, G28A, G30C, G31C
# DNA 1: CAATCTGAATTCCGGTCTCCC
# DNA 2: TGGTGGCTACGACGGGATT
# B7: UAUAAGA (DNA:RNA)
# RNA: B1 RNA with C26A, G27U, G28A, C29A, G31A
# DNA 1: CAATCTGAATTCCGGTCTCCC
# DNA 2: TGGTGGCTACGACGGGATT
# B8: UCGAUGU (DNA:RNA)
# RNA: B1 RNA with G28A, C29U, G31U
# DNA 1: CAATCTGAATTCCGGTCTCCC
# DNA 2: TGGTGGCTACGACGGGATT
# B9: AUCUAAA (DNA:RNA)
# RNA: GGGAGACCGGAAUUCAGAUUGUCCAUCUAAAUUAAAUCCCGUCGUAGCCACCA
# DNA 1: CAATCTGAATTCCGGTCTCCC
# DNA 2: TGGTGGCTACGACGGGATT
# B10: ACUGUCA (DNA:RNA)
# RNA: B9 RNA with U26C, C27U, U28G, A29U, A30C
# DNA 1: CAATCTGAATTCCGGTCTCCC
# DNA 2: TGGTGGCTACGACGGGATT
# B11: UUGUUUA (DNA:RNA)
# RNA: B9 RNA with A25U, C27G, A29U, A30U
# DNA 1: CAATCTGAATTCCGGTCTCCC
# DNA 2: TGGTGGCTACGACGGGATT
# B12: UCGGGAA (DNA:RNA)
# RNA: B1 RNA with C29G, G30A, G31A
# DNA 1: CAATCTGAATTCCGGTCTCCC
# DNA 2: TGGTGGCTACGACGGGATT
# B13: UAAAGGG (DNA:RNA)
# RNA: B1 RNA with C26A, G27A, G28A, C29G
# DNA 1: CAATCTGAATTCCGGTCTCCC
# DNA 2: TGGTGGCTACGACGGGATT
# B14: CAGGUAA (DNA:RNA)
# RNA: B9 RNA with A25C, U26A, C27G, U28G, A29U
# DNA 1: CAATCTGAATTCCGGTCTCCC
# DNA 2: TGGTGGCTACGACGGGATT
# B15: UAGCCAU (DNA:RNA)
# RNA: B1 RNA with C26A, G28C, G30A, G31U
# DNA 1: CAATCTGAATTCCGGTCTCCC
# DNA 2: TGGTGGCTACGACGGGATT
# B16: AACGAUU (DNA:RNA)
# RNA: B9 RNA with U26A, U28G, A30U, A31U
# DNA 1: CAATCTGAATTCCGGTCTCCC
# DNA 2: TGGTGGCTACGACGGGATT
# B17: CGAAGUG (DNA:RNA)
# RNA: B1 RNA with U25C, C26G, G27A, G28A, C29G, G30U
# DNA 1: CAATCTGAATTCCGGTCTCCC
# DNA 2: TGGTGGCTACGACGGGATT
# B18: GGAGAGA (DNA:RNA)
# RNA: B9 RNA with A25G, U26G, C27A, U28G, A30G
# DNA 1: CAATCTGAATTCCGGTCTCCC
# DNA 2: TGGTGGCTACGACGGGATT
# B19: ACCGCCG (DNA:RNA)
# RNA: B1 RNA with U25A, G27C, G30C
# DNA 1: CAATCTGAATTCCGGTCTCCC
# DNA 2: TGGTGGCTACGACGGGATT
# B20: ACGAAAG (DNA:RNA)
# RNA: B9 RNA with U26C, C27G, U28A, A31G
# DNA 1: CAATCTGAATTCCGGTCTCCC
# DNA 2: TGGTGGCTACGACGGGATT
# Molecular target: T1, RBFOX1 RRM RbFoxmut (Fox-RRM*)
# Test: EMSA; HiTS-Eq, 1 nM pool, 10 min; buffer printed only for the single-RNA assays: 10 mM Tris pH 7.5, 150 mM NaCl, 3.4 mM EDTA, 0.001% NP-40, 30 C
# Settings: tags: His6 N-terminal (pET28a); label: 5' 32P
# Outline: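 Purified RbFox RRM (wild type or mutant) was equilibrated for 10 min in 50 µL with 1 nM of a 5′-radiolabelled pool of RNA with 7 randomized nucleotides, its flanks annealed to DNA oligonucleotides, across increasing protein concentrations. Free RNA was separated by 8% native PAGE, excised, reverse-transcribed, PCR-barcoded and sequenced on an Illumina HiSeq 2500. Relative association constants came from read-count changes of each variant against the control reaction, normalised to the cognate motif.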
row,Binder,binding signal
1,B1,0.109 KA relative to UGCAUGU
2,B2,0.106 KA relative to UGCAUGU
3,B3,0.159 KA relative to UGCAUGU
4,B4,0.0815 KA relative to UGCAUGU
5,B5,0.0779 KA relative to UGCAUGU
6,B6,0.078 KA relative to UGCAUGU
7,B7,0.0718 KA relative to UGCAUGU
8,B8,0.119 KA relative to UGCAUGU
9,B9,0.114 KA relative to UGCAUGU
10,B10,0.101 KA relative to UGCAUGU
11,B11,0.178 KA relative to UGCAUGU
12,B12,0.115 KA relative to UGCAUGU
13,B13,0.0714 KA relative to UGCAUGU
14,B14,0.106 KA relative to UGCAUGU
15,B15,0.0774 KA relative to UGCAUGU
16,B16,0.0525 KA relative to UGCAUGU
17,B17,0.101 KA relative to UGCAUGU
18,B18,0.073 KA relative to UGCAUGU
19,B19,0.0903 KA relative to UGCAUGU
20,B20,0.103 KA relative to UGCAUGU
